Test results published in the RNAGym collection of RNA variant scans (doi:10.1093/nar/gkz1192).
Read counts are not given, so values of variants with three or more changes are uncertain.

B1: CPEB3 Ribozyme (parent)
chain: UAACAGGGGGCCACAGCAGAAGCGUUCACGUCGCAGCCCCUGUCAGAUUCUGGUGAAUCUGCGAAUUCUGCUGUAUAUCUC

Variants of: B1
Experiment: self-cleavage, relative activity (ratio to wild type); higher = more cleavage; in vitro, sequencing
Summary of the method: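 Barcoded CPEB3 ribozyme mutants, produced by rounds of error-prone PCR, self-cleaved while being transcribed with T7 RNA polymerase for 5 hours at 37°C and during a subsequent 15 min DNase I step before EDTA was added. Sequencing of template-switched cDNA on Illumina gave cleaved and total reads, and DNA sequencing assigned barcodes to variants. Each variant's relative activity is its cleaved/total read fraction divided by the unmutated ribozyme's fraction, averaged across three batches. A variant needed a minimum of 5 reads.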
Variant U51C A56G C71U has a self-cleavage of 0.41.
With U51C A56G G73U the self-cleavage was 0.75.
U51C A56G U58G U60C showed a self-cleavage of 0.12.
In the case of U51C A56G U60G, the self-cleavage is reported as 0.28.
With U51C A57C U60G the self-cleavage was 0.25.
Work on U51C A57G A77U yielded a self-cleavage of 0.7.
U51C A57G U58C A64G gave a self-cleavage of 0.26.
U51C A57U A65G showed a self-cleavage of 0.36.
U51C A57U U58A U69C A77G gave a self-cleavage of 0.13.
U51C A65G A77G showed a self-cleavage of 0.48.
For U51C A65G U72C, the self-cleavage was 0.75.
For U51C A65U U67A, the self-cleavage was 0.45.
For U51C G61C U67C U72A, the self-cleavage was 0.38.
Work on U51C G63A A64G yielded a self-cleavage of 0.7.
For U51C G70A U72C U78C, the self-cleavage was 0.51.
In the case of U51C U54A A56G U60A U69A, the self-cleavage is reported as 0.3.
With U51C U54C A64G U72C U78A U80G the self-cleavage was 0.59.
Work on U51C U58C U60C yielded a self-cleavage of 0.33.
U51C U60C A64G showed a self-cleavage of 0.15.
U51C U60C A64U G70A showed a self-cleavage of 0.4.
U51C U60C U69C gave a self-cleavage of 0.36.
U51C U60C U78A gave a self-cleavage of 0.58.
With U51C U66C U74C the self-cleavage was 0.52.
U51C U66C U76A U80A showed a self-cleavage of 0.62.
For U51C U67C U80C, the self-cleavage was 0.52.
With U51C U69C G70U the self-cleavage was 0.54.
In the case of U51C U72A A75G U80A, the self-cleavage is reported as 1.17.
Work on U51G U58C U78C yielded a self-cleavage of 0.25.
With U51G U60C U66C the self-cleavage was 0.17.
U51G U76C A77G showed a self-cleavage of 0.99.
For G52A A64G U72C U78C, the self-cleavage was 1.03.
With G52A A65G C71A the self-cleavage was 0.26.
In the case of G52A G70U A77G U80A, the self-cleavage is reported as 0.44.
In the case of G52A U60A A64U, the self-cleavage is reported as 0.16.
For G52A U69C A77U, the self-cleavage was 0.92.
In the case of G52A U72C U78C, the self-cleavage is reported as 1.09.
Variant G52C U54C G55U U60C U80C has a self-cleavage of 0.2.
Work on G52U A56G U78G yielded a self-cleavage of 0.75.
In the case of G52U A56U U67A A75G, the self-cleavage is reported as 0.3.
For G52U A64U U80C, the self-cleavage was 0.5.
In the case of G52U U67C U69C, the self-cleavage is reported as 0.23.
In the case of G52U U69C U72A, the self-cleavage is reported as 0.28.
G53A A65C U78C showed a self-cleavage of 0.13.
Work on G53A G55A U74C yielded a self-cleavage of 1.18.
Variant G53A U58C U67C has a self-cleavage of 0.41.
G53A U60A A77G gave a self-cleavage of 0.56.
Work on G53A U60A U66C yielded a self-cleavage of 0.41.
G53A U60C A75C gave a self-cleavage of 0.81.
For G53A U72A U74G, the self-cleavage was 1.1.
For G53C C71U U80C, the self-cleavage was 1.21.
Variant U54A A56U A65G has a self-cleavage of 0.36.
Work on U54A A57G A75U yielded a self-cleavage of 1.13.
Variant U54A A57G U58A U69A has a self-cleavage of 0.18.
With U54A A64G U80C the self-cleavage was 1.08.
For U54A A77C U78C, the self-cleavage was 1.08.
In the case of U54A C59U U60C U69C, the self-cleavage is reported as 0.27.
With U54A C62A U69C U72G U78C the self-cleavage was 0.21.
U54A U58G U76C showed a self-cleavage of 0.15.
With U54A U60A C71U the self-cleavage was 0.49.
For U54A U60A U66C A77G U80C, the self-cleavage was 0.26.
Work on U54A U60C C62U U72A yielded a self-cleavage of 0.45.
U54A U60C U69C showed a self-cleavage of 0.58.
For U54A U67C U78C, the self-cleavage was 0.31.
With U54C A56C U60A the self-cleavage was 0.18.
In the case of U54C A56G C79G, the self-cleavage is reported as 0.89.
Variant U54C A56G U80C has a self-cleavage of 0.52.
With U54C A56U U60A A64G U78C the self-cleavage was 0.14.
For U54C A56U U72C U74A, the self-cleavage was 0.62.
Work on U54C A57G U80C yielded a self-cleavage of 0.53.
Work on U54C A57U A64G U69C yielded a self-cleavage of 0.19.
U54C A64G U72C U74C gave a self-cleavage of 0.69.
In the case of U54C A65U U72G, the self-cleavage is reported as 0.5.
For U54C A77G U80A, the self-cleavage was 1.17.
U54C U58A U80A gave a self-cleavage of 0.31.
U54C U58C U60A A65G U80C showed a self-cleavage of 0.16.
In the case of U54C U58C U67A, the self-cleavage is reported as 0.15.
Work on U54C U60C A77U yielded a self-cleavage of 0.38.
For U54C U60C U72A, the self-cleavage was 0.4.
Variant U54C U60C U80C has a self-cleavage of 0.76.
Work on U54C U67A U72C U74C yielded a self-cleavage of 0.73.
Work on U54C U69A U80G yielded a self-cleavage of 0.6.
In the case of U54C U74C U78A, the self-cleavage is reported as 1.23.
Variant U54C U76C U78C U80A has a self-cleavage of 0.7.
